Measured values published in the BET-seq Pho4 binding data (Le et al. 2018).
The list shows a part of the results. Values were computed here from the reads of four pooled replicates and scatter widely.

target: T1, Pho4 (S. cerevisiae) (UniProt P07270); experiment: relative binding free energy (BET-seq); higher = weaker binding; details: reference: library average
T1 sequence: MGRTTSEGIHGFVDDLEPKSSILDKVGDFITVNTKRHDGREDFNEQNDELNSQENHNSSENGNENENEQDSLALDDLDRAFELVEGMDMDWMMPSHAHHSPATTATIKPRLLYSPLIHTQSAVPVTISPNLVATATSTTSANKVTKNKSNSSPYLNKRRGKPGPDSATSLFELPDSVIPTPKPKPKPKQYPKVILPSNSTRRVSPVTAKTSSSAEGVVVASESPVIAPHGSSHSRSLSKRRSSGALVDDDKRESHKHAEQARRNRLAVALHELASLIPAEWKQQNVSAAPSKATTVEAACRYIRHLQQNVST

Sequence	relative binding free energy [kcal/mol]
GTGAGCACGTGGGCAA	-0.2
TTCGGCACGTGGGGGT	-0.17
ATGTGCACGTGTTTTA	-0.03
TGAGGCACGTGCAGAT	-0.15
TGGGCCACGTGTTAGA	0
GTATGCACGTGTCTTA	-0.05
TGATTCACGTGTAAGT	0.15
GTATACACGTGGGGAT	0.03
AGTGTCACGTGGTAAG	0.06
TAATTCACGTGCTGTT	0.32
AGGGCCACGTGGGTGA	-0.2
TCTGACACGTGCGTTT	0.07
GGGATCACGTGGGAGT	0.11
TTAGTCACGTGTTGTT	0.13
ACATTCACGTGGGGAG	0.29
ACAGGCACGTGCTGTG	-0.1
GGTGCCACGTGGTTTA	-0.05
TGATGCACGTGGCGTG	-0.16
TGTGGCACGTGCGGAC	-0.19
GGTTGCACGTGTTGAA	0.1
TTGCTCACGTGAGTAT	0.41
TGCTTCACGTGGAGGT	0.12
TGTTTCACGTGATAAC	0.33

Sequence	relative binding free energy [kcal/mol]
GAATTCACGTGGGTTG	0.3
GTATGCACGTGGTAGT	-0.03
GGGTGCACGTGTAGTG	0.16
TGTTTCACGTGCGAGT	0.23
GAGGGCACGTGGTGGA	0.01
CGGTTCACGTGGGCGC	0.28
ATTTGCACGTGTGTGA	0.04
ATTAACACGTGTAGGA	0.14
TATCGCACGTGGTGGA	0.01
ATTATCACGTGGATTC	0.23
AATTGCACGTGATTAG	0.08
TCGGGCACGTGGTGAG	-0.08
ATACACACGTGGTTTG	-0.13
AGGAGCACGTGCCGGG	-0.13
AATTGCACGTGTAGTA	0.02
AGAGTCACGTGTACGG	0.04
TAGCGCACGTGAGGTT	0.07
GGGTGCACGTGTATTC	0.02
TATTACACGTGATTGA	0.18
TTCGCCACGTGTGGGG	-0.1
GGATTCACGTGCGTTG	0.23
TTTGGCACGTGGGCCG	-0.17
TGGGACACGTGGAAGA	0.04

Sequence	relative binding free energy [kcal/mol]
GGTGTCACGTGGGATT	0.14
GAGGGCACGTGGGTCA	-0.17
GTCAACACGTGGGTTG	-0.09
AGTAACACGTGGATGT	0.02
TTGGTCACGTGAGACG	0.33
TTTATCACGTGAGTTA	0.33
CAAGGCACGTGGTGGT	-0.2
ATCGACACGTGTCGGG	0.26
TGAATCACGTGTAGGG	0.21
CTGGCCACGTGAAGGG	0.11
GTGAACACGTGGGTCA	-0.13
AGTTACACGTGTGGAG	0.08
AATGGCACGTGTGCGA	0.04
TAGGTCACGTGCAGGT	0
TGGATCACGTGCTCGG	0.13
AGCTTCACGTGAAGGG	0.31
TGTAGCACGTGGTGTC	-0.12
GACTACACGTGGGGTT	-0.1
TGTTGCACGTGACTGT	0.1
AGTTGCACGTGTTAAT	0.04
GTCGCCACGTGTGAGG	-0.02
TACGACACGTGAGGTG	0.05
CTGGGCACGTGGGACT	-0.18

Sequence	relative binding free energy [kcal/mol]
TTTAACACGTGGTTAA	-0.15
ATAGACACGTGATGGA	0.1
GTGAGCACGTGCGTAG	-0.07
GTTTACACGTGGAATA	0.3
TGGGTCACGTGATTGT	0.36
TTTTTCACGTGTTTAA	0.37
GAGGACACGTGTCTGT	0.13
ATGTGCACGTGTGGAT	0.08
AAATGCACGTGTTGGG	-0.05
CGGCACACGTGGGTGG	-0.1
GTGTTCACGTGATTAA	0.31
AGTACCACGTGTGGGG	-0.16
TTAAGCACGTGGAACG	0.13
GGTGGCACGTGCCGAG	-0.13
AGGATCACGTGGGCCG	0.12
AAGTGCACGTGCAGTT	-0.12
GTAGGCACGTGGATTT	0.02
TGGGCCACGTGGGAAG	-0.17
GATCGCACGTGTTTTT	0.12
TTATTCACGTGCTTCG	0.34
TAGTCCACGTGTATGT	0.06
GTAGGCACGTGAGTCG	0.17
AGTGCCACGTGGGTAT	-0.28

Sequence	relative binding free energy [kcal/mol]
AGTGGCACGTGATTGC	-0.02
TTTATCACGTGAATAA	0.34
AGGGTCACGTGTATCT	0.09
ATCTTCACGTGGTAGG	0.08
ATCTACACGTGAGGGG	0.15
TTTTGCACGTGTGTCG	0.13
AGGTTCACGTGGTTCG	0.22
GCTTGCACGTGTGTTA	0.03
TATGGCACGTGATTCT	-0.04
TTTGACACGTGTGCGT	-0.07
TCGCTCACGTGGTTGG	0.2
CGGTTCACGTGCTTTG	0.41
ATGTGCACGTGTACTT	0.08
TTAATCACGTGGCATT	0.02
TGGGTCACGTGCTTGC	0.08
AGTATCACGTGAAGTG	0.26
TCAGTCACGTGTGTCG	0.14
GATTACACGTGGTCGG	0.04
GTGCCCACGTGGGGTG	-0.32
GTGCGCACGTGGCGTT	-0.17
TTGTTCACGTGAGCAT	0.29
CTTTGCACGTGATTGG	0.09
TGATTCACGTGCTGTA	0.26
